Target: wild type ACE2 ECD-Fc fusion protein (Homo sapiens, UniProt Q9BYF1)
Type: biochemical

Chain of wild type ACE2 ECD-Fc fusion protein (Q9BYF1 other isoform, or with tags, fused parts or gaps): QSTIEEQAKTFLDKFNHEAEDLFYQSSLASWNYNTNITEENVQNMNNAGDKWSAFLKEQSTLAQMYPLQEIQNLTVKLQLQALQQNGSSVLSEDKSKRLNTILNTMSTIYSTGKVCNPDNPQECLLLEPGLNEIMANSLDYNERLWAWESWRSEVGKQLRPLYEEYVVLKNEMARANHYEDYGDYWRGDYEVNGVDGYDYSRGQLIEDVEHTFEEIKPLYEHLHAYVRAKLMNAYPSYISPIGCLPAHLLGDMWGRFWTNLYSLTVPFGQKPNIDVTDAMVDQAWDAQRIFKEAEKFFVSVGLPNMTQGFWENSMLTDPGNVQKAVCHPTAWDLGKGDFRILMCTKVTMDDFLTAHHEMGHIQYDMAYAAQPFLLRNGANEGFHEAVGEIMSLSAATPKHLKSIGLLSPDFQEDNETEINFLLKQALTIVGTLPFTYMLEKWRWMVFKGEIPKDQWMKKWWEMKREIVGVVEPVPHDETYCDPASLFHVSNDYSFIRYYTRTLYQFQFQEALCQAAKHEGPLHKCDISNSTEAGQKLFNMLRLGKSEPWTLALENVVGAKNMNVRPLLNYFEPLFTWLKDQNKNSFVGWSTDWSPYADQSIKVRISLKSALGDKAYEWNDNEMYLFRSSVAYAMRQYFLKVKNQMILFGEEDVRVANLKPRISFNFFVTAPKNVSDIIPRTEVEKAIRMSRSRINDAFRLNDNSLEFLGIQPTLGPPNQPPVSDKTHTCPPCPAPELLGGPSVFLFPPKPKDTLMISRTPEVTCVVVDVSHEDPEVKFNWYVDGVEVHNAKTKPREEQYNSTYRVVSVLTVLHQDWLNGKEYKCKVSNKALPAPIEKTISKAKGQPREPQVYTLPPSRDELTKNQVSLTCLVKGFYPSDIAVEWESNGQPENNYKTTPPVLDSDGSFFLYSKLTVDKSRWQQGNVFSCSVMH

CC(C)C[C@H](N[C@@H](Cc1cncn1Cc1cc(Cl)cc(Cl)c1)C(=O)O)C(=O)O [MLN-4760]
RFU in the presence of ACE2 inhibitor: significantly reduced

Reference: patent publication US11453869B2 (priority 2020, dated 2022)
